Here are results for 56 sequences from the supplement of paper PMC11417369.

The list shows a part of the results.

The assay concerns PfHDP1 homeodomain (GST-tagged). Briefly: gcPBM binding intensity (ln(normalized median fluorescence intensity)); higher = stronger DNA binding. In outline: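 Binding intensity values are the highest Masliner-normalised natural-log median intensity among replicate spots of either probe orientation. The binding step lasted 1 h in 1× PBS with 1% milk, 0.2 mg/ml BSA, 0.5% salmon testes DNA and 0.03% Triton X-100, using GST-tagged P. falciparum DNA-binding domains expressed in E. coli on an Agilent 4 × 180k array of primer-extended double-stranded 36-bp intergenic genomic probes plus negative controls. Alexa488 anti-GST antibody and a 488 nm scan detected bound protein.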
On to “ATTTGTGTATATTAGAGTACATAAAATTAGAGGAAC [XGTACX_site1654]”, for which the “gcPBM binding intensity (ln)” value amounted to 6.99.

Turning to “TTCATATAATTATATACATGCATAAATTCTAAGTAA [TGCATGCA_site622]”, the “gcPBM binding intensity (ln)” value was determined as 6.78.

On to “TTCATATATTATTATGCATGTTCATAAATTATCTAA [TGCATGCA_site896]”, for which the “gcPBM binding intensity (ln)” value was 6.53.

For the sequence “TAAAAATGTGGACACACACACATATATATATTTAAT [CACACA_site4941]”, the “gcPBM binding intensity (ln)” value stood at 6.52.

In the case of “TTTCTAATTATTTCCCTTCAAATATATTAATATCGT [CACACA_negctrl_site429]”, the “gcPBM binding intensity (ln)” value is 6.64.

Turning to “ATATATATTATTATATGTACATATAAATATATTAAT [XGTACX_site5270]”, the “gcPBM binding intensity (ln)” value stood at 6.45.

Take “TTAGTATATACATTTGCACACATTATTTTTTAACAT [CACACA_site2618]”: the “gcPBM binding intensity (ln)” value came out at 10.5.

With “ATATTGTAAGTAAAATGTAATAAATATAATAAAATA [CACACA_negctrl_site697]”, the “gcPBM binding intensity (ln)” value was 6.4.

Consider “AAAAGGAAAATACTAGCACACAATATATAATAAACA [CACACA_site285]”, for which the “gcPBM binding intensity (ln)” value worked out at 6.73.

Take “TCCTTGCATTTTAAAACACACAAAAATTAATTGTTA [CACACA_site7152]”: the “gcPBM binding intensity (ln)” value was determined as 7.01.

Regarding “TCATTAATATTTCATAGTACAATTTTGTCTAATTGT [XGTACX_site6720]”, the “gcPBM binding intensity (ln)” value was 6.29.

“TTATATTATACATACACACCCATATAACATGTTTTT [CACACA_site6539]”: the “gcPBM binding intensity (ln)” value amounted to 7.17.

Consider “AATGGAAAAAAAAAAATAAATACAAATAAATACAAA [GTGCAC_negctrl_site407]”, for which the “gcPBM binding intensity (ln)” value was 6.43.

“TATTTTTTTCTTACTACACACATATATATGCTTTCC [CACACA_site4058]”: the “gcPBM binding intensity (ln)” value was found to be 7.15.

“ATAATAATATTGTGTACACAATAATTTGTCAAATCA [CACACA_site6019]”: the “gcPBM binding intensity (ln)” value was 6.96.

Take “ACATATACAAGACACACACACAACGTTTTAATAAAT [CACACA_site7017]”: the “gcPBM binding intensity (ln)” value amounted to 6.96.

For “AAAAAAAAAAAAAAATGTACATATATATATATATAT [XGTACX_site876]”, the “gcPBM binding intensity (ln)” value was 9.34.

With “AAGGAATATGTATATACACACAGGTACATATATATA [CACACA_site441]”, the “gcPBM binding intensity (ln)” value was determined as 6.72.

With “AAAAAATAATAATAATGTACAAATAAAATAAAAACA [XGTACX_site6568]”, the “gcPBM binding intensity (ln)” value amounted to 6.74.

With “ATATATTTTTACCATACACACATATAATAAATATAT [CACACA_site3722]”, the “gcPBM binding intensity (ln)” value amounted to 6.94.

Consider “TCGTGTGAAAATATTACACACATTTACTATAGTATC [CACACA_site7590]”, for which the “gcPBM binding intensity (ln)” value was 6.65.

As for “ATAAAAATTGAAACATGTACACATATTCATTTTATA [XGTACX_site7968]”, the “gcPBM binding intensity (ln)” value stood at 6.01.

Turning to “ATTATAAATTAAAATACACACATATATACCTAATAT [CACACA_site5541]”, the “gcPBM binding intensity (ln)” value amounted to 6.56.

On to “AGAATAAAAATACAAGCACACATGTATGAAATATAT [CACACA_site3213]”, for which the “gcPBM binding intensity (ln)” value was determined as 6.72.

As for “ATATATAATTACACAAATAAAAAAATAAAATGAAAT [CACACA_negctrl_site1513]”, the “gcPBM binding intensity (ln)” value was found to be 6.61.

“ATCATGTTATATATGTGTACATATATATGATATAAT [XGTACX_site991]”: the “gcPBM binding intensity (ln)” value was determined as 6.46.

On to “TGAACAATGTATAATTGTACGCAACGAAAATAAAAA [XGTACX_site1559]”, for which the “gcPBM binding intensity (ln)” value worked out at 6.98.

As for “CCCCCCGTGTTATATACACACATAATCAAATAAAAT [CACACA_site4111]”, the “gcPBM binding intensity (ln)” value was determined as 9.33.

With “TCTTATTAAAATATTTATATAGGTAATCACAATATT [GTGCAC_negctrl_site568]”, the “gcPBM binding intensity (ln)” value worked out at 6.37.

In the case of “AGAAATAAGAAATATACACACATATATATATATATA [CACACA_site2808]”, the “gcPBM binding intensity (ln)” value turned out to be 9.3.

For “TATAAAATAAGACATGCATGTTATACATATATATAT [TGCATGCA_site314]”, the “gcPBM binding intensity (ln)” value turned out to be 8.51.

For “AAAAAAAGAAAAATTGCACACACTTATAAAAATATA [CACACA_site4014]”, the “gcPBM binding intensity (ln)” value stood at 9.27.

On to TTTTGTTATGAGAGGGTGCTAATATTTGGATATAAA, for which the “gcPBM binding intensity (ln)” value came to 6.52.

For the sequence “AAAAAAAAAAAAAGTAGTACATAATATGTTCCTCCT [XGTACX_site8356]”, the “gcPBM binding intensity (ln)” value turned out to be 6.02.

As to “TACTTACATATAATAACACACAAGAAAAAAATAAAA [CACACA_site1033]”, the “gcPBM binding intensity (ln)” value came to 6.93.

Regarding “ATTTTTGTACACTTCTTTTTTTTTTTTCTTTTATGT [CACACA_negctrl_site1323]”, the “gcPBM binding intensity (ln)” value stood at 7.08.

In the case of “TACCCATGCATTTTTGCACACACATATATATATAAA [CACACA_site1429]”, the “gcPBM binding intensity (ln)” value is 10.7.

For “AGACAGCGCACAAACACACAAACACCCACCCACATA [CACACA_site451]”, the “gcPBM binding intensity (ln)” value is 7.82.

Regarding “AGCACAAGCACAAGCACACATTTATATATAAATACA [CACACA_site4642]”, the “gcPBM binding intensity (ln)” value worked out at 6.68.

“ACAAAATATACAAAATGTACAAAATTTACAAAATAT [XGTACX_site6466]”: the “gcPBM binding intensity (ln)” value came out at 6.21.

Regarding “AAAAAAAAAAATAAAGAAATCAAAATTGATGAATAA [GTGCAC_negctrl_site692]”, the “gcPBM binding intensity (ln)” value was found to be 6.01.

Regarding “TATATATATTTATGCTGTACCAAATAAGAATAGAAA [XGTACX_site7731]”, the “gcPBM binding intensity (ln)” value came to 6.36.

As for “TAAATGATTGCATAATGTACATATAATTTTTTTTTT [XGTACX_site1988]”, the “gcPBM binding intensity (ln)” value amounted to 6.59.

With “TATATAAAAAATAAATGTACACATGTAATAATAAAA [XGTACX_site2640]”, the “gcPBM binding intensity (ln)” value worked out at 7.09.

In the case of “TGTGTAAACATATTCACACACATAAATTCGCATATA [CACACA_site6961]”, the “gcPBM binding intensity (ln)” value turned out to be 6.39.

On to “TATAAATATACACCCACACACATATATATATATATA [CACACA_site3745]”, for which the “gcPBM binding intensity (ln)” value worked out at 9.4.

As for “AATCAATTAATATTAGCATAAAATTTTATTATTTTG [XGTACX_negctrl_site479]”, the “gcPBM binding intensity (ln)” value stood at 6.47.

“TGACATAAAAAATATACACACTATAATATATATACT [CACACA_site4898]”: the “gcPBM binding intensity (ln)” value came out at 6.33.

For the sequence “TGTATCCATATTTGTTCACACACACCCATATTTATA [CACACA_site9190]”, the “gcPBM binding intensity (ln)” value is 7.03.

Take “ATAATATGTATGGTCACACAGACAAGGAAAGAATAA [CACACA_site5164]”: the “gcPBM binding intensity (ln)” value is 6.99.

“GTATATTTTAATATGACACACATATTATATATATAT [CACACA_site2483]”: the “gcPBM binding intensity (ln)” value came out at 8.26.

In the case of “ATTTATTATGAACATACACACAAAAAAAAAAAGTAT [CACACA_site2054]”, the “gcPBM binding intensity (ln)” value was 6.96.

Regarding “TAACTTTGAAAAGATGGTACACAATAATATATATAT [XGTACX_site8667]”, the “gcPBM binding intensity (ln)” value amounted to 8.08.

For “ATTGTTATTTATTGTGTGCGCATTAATACATACATA [GTGCAC_site9982]”, the “gcPBM binding intensity (ln)” value worked out at 7.61.

In the case of “TAATGTTGAGAATTTTGTACATATAGATCAATTTAT [XGTACX_site5426]”, the “gcPBM binding intensity (ln)” value came to 6.33.

Turning to “TTTAATATTATTATTTTACACACTTTTTTCCTTTTA [CACACA_site8780]”, the “gcPBM binding intensity (ln)” value worked out at 6.42.
